Measurements reported in PubChem BioAssay AID463173 (ICCB-Longwood Screening Facility, Harvard Medical School, 2010).
In all, about 52,000 compounds went through this assay and about 1,700 (3.3%) were called active. No stated cut-off is given here; in the data, active means survival mostly below about 52% (no sharp cut-off); inactive means mostly above about 56%. This is one part of the list.

These compounds were tested on Wild type (assay: growth inhibition of S. aureus wild type versus tarO mutant, primary screen, teichoic acid synthesis inhibitors, RN4220, OD600 (AID 463173)). Conditions: S. aureus RN4220 wild type/DeltatarO growth, OD600, 18 h, hits give low values, screened at 18.75 µg/mL (by protocol).
`O=C(CSc1nc2ccccc2n1Cc1ccccc1F)NCc1ccccc1` was tested, and the survival was inactive: 99%.
`Cc1ccccc1C(=O)Nc1cccc(C(=O)OCc2cc(=O)n3c4c(sc3n2)CCCC4)c1` was tested, and the survival was inactive: 64%.
`Cc1cc(C)cc(OCC(=O)Nc2ccc(-c3nc4ccccc4s3)cc2)c1` was tested, and the survival was inactive: 88%.
`COc1cc2nc(SCc3cccc(Cl)c3)n3nc(CCn4nc(C)cc4C)nc3c2cc1OC` was tested, and the survival was inactive: 73%.
`CCOc1ccc(-c2cc(OC(=O)c3ccccc3)c3c(C)oc(C)c3c(=O)c2)cc1` was tested, and the survival was inactive: 64%.
With `Cn1nnc2c(N3CCN(c4ccccc4F)CC3)ncnc21` the survival was inactive: 82%.
`Cc1ccc2oc3c(c(=O)c2c1)C(c1ccccc1F)N(CCCN1CCOCC1)C3=O` (centres undefined) was tested, and the survival was inactive: 71%.
With `COc1ccc(N(CC(=O)NCCc2ccccc2)S(=O)(=O)c2ccccc2)c(OC)c1` the survival was inactive: 77%.
`CCCCNC(=O)CSc1nc2cc3c(cc2c(=O)n1CCCCCC(=O)NCc1ccc2c(c1)OCO2)OCO3` was tested, and the survival was inactive: 57%.
For `Cc1ccc(-n2c(SCC(=O)NCc3ccc(F)cc3)nc3c([nH]c4ccccc43)c2=O)cc1`, the survival was inactive: 85%.
For `Cc1cc(C)cc(NC(=O)CCc2c(C)nn(-c3ccc(N4CCCC4)nn3)c2C)c1`, the survival was inactive: 71%.
In the case of `COc1cc2c(cc1OC)C(COc1ccc(F)cc1)N(C(=O)Cc1ccc(F)cc1)CC2` (centres undefined), the survival is reported as inactive: 71%.
With `CCOc1ccc(OCC)c(S(=O)(=O)N2CCN(c3cccc(C)c3C)CC2)c1` the survival was inactive: 42%.
`Cc1ccc(Nc2c(-c3ccncc3)nc3ccc(C)cn23)cc1` was tested, and the survival was inactive: 81%.
For `CCOC(=O)C1CCN(c2ncnc3c2nnn3C)CC1`, the survival was active: 10%.
`Cc1ccc(CN(C(=O)COc2cccc([N+](=O)[O-])c2)c2ccccn2)cc1` was tested, and the survival was inactive: 68%.
`CCCS(=O)(=O)c1ncc(Cl)c(C(=O)Nc2scc(-c3ccccc3)c2C(=O)OCC)n1` was tested, and the survival was active: 4%.
With `Cc1cc(C)cc(N2CCn3c2nc2c3c(=O)n(Cc3ccc(Cl)cc3)c(=O)n2C)c1` the survival was inactive: 97%.
In the case of `CC(C)c1ccc(CNc2nc(-c3ccco3)nn2S(=O)(=O)c2ccc3ccccc3c2)cc1`, the survival is reported as inactive: 115%.
`C#CCN1C(=O)C(O)(CC(=O)c2ccccc2)c2ccccc21` (centres undefined) was tested, and the survival was inactive: 115%.
`O=S(=O)(c1ccccc1)c1nc(-c2ccc(Cl)cc2Cl)oc1N1CCCCCC1` was tested, and the survival was inactive: 61%.
In the case of `COc1ccc(CNC(=O)Cn2nnc(-c3ccc(S(C)(=O)=O)cc3)n2)cc1`, the survival is reported as inactive: 84%.
With `COc1cccc2c1cc1c(=O)n(CC(=O)N3CCN(c4cc(Cl)ccc4C)CC3)nc(C)n12` the survival was inactive: 78%.
With `CCCCNC(=O)C1CCCN(S(=O)(=O)c2ccc(-n3cnnn3)cc2)C1` (centres undefined) the survival was inactive: 106%.
`COc1cccc(-c2cc(C(=O)Nc3cc(OC)c(OC)c(OC)c3)on2)c1` was tested, and the survival was inactive: 69%.
With `O=C(CCCn1c(=O)c2cccn2c2cccnc21)NCc1ccc(F)cc1` the survival was inactive: 115%.
For `CCC1CCCCN1CC(=O)N1CCCc2c1c(=O)oc1ccc(OCc3ccccc3)cc21` (centres undefined), the survival was active: 3%.
For `COc1ccc(-c2nc(Cn3c(SCc4ccc(C)cc4)nc4cccnc43)c(C)o2)cc1OC`, the survival was inactive: 132%.
`COc1ccc(CNC(=O)CCC(=O)N2CCSc3ccccc32)cc1` was tested, and the survival was inactive: 101%.
For `CCOc1ccc(-n2c(C)nc3cc(C(=O)NCCC4=CCCCC4)ccc32)cc1`, the survival was active: -6%.
`COc1ccc(C(=O)CC2(O)C(=O)N(Cc3ccccc3Cl)c3ccccc32)cc1` (centres undefined) was tested, and the survival was inactive: 68%.
With `COc1ccc(C2NC(=O)CS2)cc1` (centres undefined) the survival was inactive: 103%.
With `CCN1CCN(c2ccc(NS(=O)(=O)c3c(C)nc4sccn4c3=O)cc2Cl)CC1` the survival was inactive: 95%.
In the case of `COc1ccc(-c2nnc(SCC(=O)Nc3ccc(Cl)cc3)s2)cc1`, the survival is reported as inactive: 69%.
`CC1=C(C#N)C(c2cccc(Oc3ccccc3)c2)C2=C(CCCC2=O)N1` (centres undefined) was tested, and the survival was inactive: 132%.
`CCOC(=O)c1ccc(NC(=O)C2=C(C)Nc3nc(SCc4ccc(Cl)cc4)nn3C2c2ccc(OC)cc2)cc1` (centres undefined) was tested, and the survival was inactive: 92%.
With `COc1ccc(-c2nc3sc(CCNC(=O)c4cc(Cl)ccc4OC)c(C)n3n2)cc1` the survival was inactive: 73%.
For `C=CCNC(=O)c1ccc(N2C(=O)c3ccccc3C2=O)cc1`, the survival was inactive: 104%.
`Cc1ccccc1NS(=O)(=O)c1ccc(Br)s1` was tested, and the survival was inactive: 126%.
`CC(C)(C)S(=O)(=O)c1cccc2ccccc12` was tested, and the survival was inactive: 117%.
In the case of `Cc1ccc(C(C)(C)C)c(OCC(=O)NCCc2nc3ccccc3[nH]2)c1`, the survival is reported as inactive: 70%.
`CN(Cc1ccccc1)S(=O)(=O)c1ccc(F)c(C(=O)Nc2cccc(Cl)c2Cl)c1` was tested, and the survival was inactive: 159%.
In the case of `Cc1ccoc1C(=O)NCc1occc1C(=O)O`, the survival is reported as inactive: 103%.
With `CCN(CC)c1cc2c(cc1F)c(=O)c(S(=O)(=O)c1cc(C)ccc1C)cn2Cc1ccccc1` the survival was inactive: 85%.
For `Cc1c(/C=C(\C#N)C(=O)Nc2cccc(Cl)c2)c2ccccc2n1Cc1ccccc1Cl`, the survival was inactive: 127%.
For `CCOC(=O)c1c(NC(=O)c2ccc(S(=O)(=O)N(CCOC)CCOC)cc2)sc2c1CC(C)(C)NC2(C)C`, the survival was inactive: 71%.
For `CCOc1ccc(C2=NC(c3cccs3)=Nc3ccc(C(C)C)cc3N2)cc1`, the survival was inactive: 84%.
With `CC(C)(Cc1nc2ccccc2[nH]1)c1nc2ccccc2[nH]1` the survival was inactive: 95%.
`N#Cc1c(N2CCOCC2)nc(N2CCOCC2)c2c1CCN(Cc1ccccc1)C2` was tested, and the survival was inactive: 112%.
With `Cc1cccc(CC2C(=O)Nc3ccccc32)c1` (centres undefined) the survival was inactive: 79%.
`O=S(=O)(c1ccccc1)N1CCCc2ccccc21` was tested, and the survival was inactive: 128%.
For `CCOc1ccccc1-n1nnc(-c2nc(-c3ccccc3)no2)c1N`, the survival was inactive: 97%.
`CCOC(=O)c1cccc(NC(=O)C2CCN(S(=O)(=O)c3ccc4c(c3)oc(=O)n4C)CC2)c1` was tested, and the survival was inactive: 81%.
For `COc1ccc(S(=O)(=O)N(CCc2ccccc2)CC(=O)Nc2cccc(OC)c2)cc1`, the survival was inactive: 118%.
With `CC(C)(C)OC(=O)N1CCN(C(=O)OC(C)(C)C)CC1` the survival was inactive: 109%.
With `COc1ccccc1N1CCN(c2ncnc3c2cnn3C)CC1` the survival was inactive: 72%.
`CCc1ccc(C(=O)COC(=O)C(Cc2c[nH]c3ccccc23)NC(=O)c2ccc(Br)cc2)cc1` (centres undefined) was tested, and the survival was inactive: 128%.
With `O=C(CSc1ccccc1)Nc1ccc2c(c1)OCO2` the survival was inactive: 109%.
`CCOc1ccc(C2c3cc(OCC)c(OCC)cc3CC(=O)N2c2ccc(C(=O)O)cc2)cc1OCC` (centres undefined) was tested, and the survival was inactive: 93%.
`Cn1c(C(=O)OCC(=O)NC2CCCCC2)cc2sccc21` was tested, and the survival was inactive: 113%.
With `CCn1c2ccccc2c2cc(/C=N/NC(=O)c3ccncc3)ccc21` the survival was inactive: 133%.
In the case of `CCc1cccc(C)c1NC(=O)Cn1ccn(-c2ccc(F)cc2)c(=O)c1=O`, the survival is reported as inactive: 83%.
In the case of `Cc1nc2ccc(S(=O)(=O)N(C)CC(=O)Nc3ccc(Br)c(C)c3)cc2s1`, the survival is reported as inactive: 79%.
`CCOc1ccc(C2CC(=O)c3c([nH]c(C(=O)OCc4ccccc4)c3C)C2)cc1` (centres undefined) was tested, and the survival was inactive: 94%.
In the case of `CC1CCN(C(=O)Cn2nnc3ccccc3c2=O)CC1`, the survival is reported as inactive: 100%.
`COc1ccc(CCN2C(=O)c3oc4ccc(F)cc4c(=O)c3C2c2ccc(C(C)(C)C)cc2)cc1` (centres undefined) was tested, and the survival was inactive: 70%.
With `O=C(CSc1nc(-c2ccccc2)no1)N1CCCCC1` the survival was inactive: 79%.
With `CCOC(=O)N1CCc2c(sc3c2c(=O)n(CCc2ccccc2)c(=O)n3Cc2ccc(F)cc2)C1` the survival was inactive: 107%.
For `COc1ccc(C(=O)CN2C(=O)N(c3ccc(C(C)=O)cc3)S(=O)(=O)c3ccccc32)cc1`, the survival was inactive: 80%.
For `O=C(O)CN(c1cccc(C(F)(F)F)c1)S(=O)(=O)c1ccccc1`, the survival was inactive: 108%.
`Cc1ccccc1-c1nn2c(=O)cc(CN3CCN(C(=O)c4ccc(C(C)(C)C)cc4)CC3)nc2s1` was tested, and the survival was inactive: 113%.
With `COc1ccc(S(=O)(=O)N2CCC(n3c(C(F)(F)F)nc4cccnc43)CC2)cc1OC` the survival was inactive: 93%.
For `Cc1ccc(Cn2nnc(C(=O)Nc3ccc(F)c(F)c3)c2N)cc1`, the survival was inactive: 89%.
In the case of `CCOC(=O)c1cc(C(=O)OCC)c(=S)[nH]c1O`, the survival is reported as inactive: 103%.
For `Cc1ccc(N(C)C(=O)C2CCN(S(=O)(=O)c3ccc4c(c3)CCCN4C(=O)C3CCC3)CC2)cc1`, the survival was inactive: 71%.
For `O=C(Nc1ccc(N2CCOCC2)cc1)c1ncn[nH]1`, the survival was inactive: 116%.
For `CCOc1ccccc1-n1cc2c(c1-c1ccc(OC)cc1)c(=O)n(C)c(=O)n2C`, the survival was inactive: 84%.
With `COC(=O)c1ccc(NC(=O)CN2CCN(c3ccc(Cl)cc3)CC2)cc1` the survival was inactive: 69%.
`O=C1CC(c2ccccc2)Cc2[nH]c(=O)c(C(=O)Nc3cccc(Cl)c3)cc21` (centres undefined) was tested, and the survival was active: 0%.
With `COc1ccc(NC(=O)c2cn(-c3ccccc3)nc2-c2ccc(C)cc2)cc1` the survival was inactive: 93%.
`CCC(=O)Nc1cccc(NC(=O)CSc2nnnn2C2CCCC2)c1` was tested, and the survival was inactive: 89%.
`Cc1c(Cl)cccc1NC(=O)CN1C(=O)COc2ccc(S(=O)(=O)Nc3ccccc3)cc21` was tested, and the survival was inactive: 75%.
For `COc1ccc(NC(=O)c2ccc3c(c2)CCN3S(=O)(=O)c2ccc(C)cc2)cc1Cl`, the survival was inactive: 109%.
For `CCOC(=O)c1cccc(NC(=O)C(C)n2c(C)c3cnn(-c4ccccc4)c(=O)c3c2C)c1` (centres undefined), the survival was inactive: 128%.
`CCCOC(=O)CSc1nnc2ccc3ccccc3n12` was tested, and the survival was inactive: 96%.
In the case of `O=C(CSc1nc2ccccc2nc1Cc1ccccc1)Nc1ccc2c(c1)OCO2`, the survival is reported as inactive: 83%.
`COc1ccc(-c2cc3nccc(C4CCN(C(=O)OC(C)(C)C)CC4)n3n2)cc1` was tested, and the survival was inactive: 85%.
With `O=C(NC1CC2CCCC(C1)N2CC(=O)N1CCCc2ccccc21)c1ccccc1` (centres undefined) the survival was inactive: 97%.
In the case of `CC(C)NS(=O)(=O)c1ccc2nc(NC(=O)c3cncc(Br)c3)sc2c1`, the survival is reported as inactive: 68%.
